The list shows a part of the results.

This experiment has as its system T1, C. trachomatis L2/434/Bu expressing GFP (CTL2-GFP).
T1 construct: L2/434/Bu GFP intracellular growth in HeLa cells
Details: species or system HeLa; C. trachomatis total inclusion area by high-content imaging, normalised to DMSO. The note with it: total inclusion area; 28.5 h, 10 µM; inhibitor. The procedure, abridged:
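After bulk GFP and resorufin fluorescence reads, cells were fixed, stained with Hoechst and imaged by high-content microscopy. Inclusion area and number (GFP) stood in for chlamydial growth, nuclei count (Hoechst) for host cell viability. MICs were derived as for the bulk readout.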
For `Oc1c(CN2CCN(c3ccc(F)cc3)CC2)cc(Br)c2cccnc12` [CBK268051], the “% of control remaining” value is listed as 24.5219.
`COCCOC(=O)N1CCC(C(=O)NC(c2ccccc2)c2ccsc2)CC1` (stereo not shown) [CBK060155]: the “% of control remaining” value stood at 83.7384.
The result for `CCOc1ccc(NC(=O)N(CCOC)Cc2cnn(C)c2)cc1Cl` [CBK306697] reads 85.5288.
The result for `OCc1cccc(-c2cncc(Nc3ccccc3)n2)c1` [CBK065576] reads 110.099; that for `CN(C)CCN(Cc1ccccc1)Cc1c(F)cccc1Cl` [CBK261867], 99.1467; that for `N#Cc1cccc(NC(=O)c2cccs2)c1` [CBK066855], 93.0919.
Under `O=C(NCc1ccc2c(c1)OCO2)c1cncc(-c2ccc(C(=O)N3CCOCC3)cc2)c1` [CBK158614] stands 74.4501; under `CCc1nc2c(OCc3ccc(S(C)(=O)=O)cc3)cccn2c1N(CCOC)C(C)=O` [CBK147846], 98.0417.
In the case of `O=C(c1ccc2ccccc2n1)N1CCC(F)CC1` [CBK200276], the “% of control remaining” value amounted to 102.42.
Regarding `Cc1noc(C)c1S(=O)(=O)Nc1ccc(C(=O)Nc2ccc(F)cc2)cc1` [CBK034410], the “% of control remaining” value was 82.5896.
Take `Cc1cc2c(o1)c1cnn(CC(=O)N3CCCC(C)C3)c(=O)c1n2C` (stereo not shown) [CBK284218]: the “% of control remaining” value stood at 102.978.
The result for `Cc1[nH]nc(C(F)(F)F)c1Cl` [CBK025387] reads 71.7838.
Under `CCCCN(C(=O)CC1SC(NC2CCCCCC2)=NC1=O)c1ccccc1` (stereo not shown) [CBK067392] stands 78.7389; under `Cc1c(C(C)NCC2CCCC2O)cnn1-c1ccc(C#N)cc1` (stereo not shown) [CBK304019], 75.3728; under `Cc1nn(CC(=O)N2CCC(C)CC2)c(=O)c2cc3sccc3n12` [CBK284083], 52.1284.
For the compound `Cc1ccc(CS(=O)(=O)N2CCN(CCO)C(C)C2)c(F)c1` (stereo not shown) [CBK304702], the “% of control remaining” value is reported as 97.9017.
The result for `N#Cc1c(NC(=O)CSc2nnc3c(n2)[nH]c2ccccc23)sc2c1CCCC2` [CBK262417] reads 77.5916.
Take `O=C(Cn1nnc(-c2ccc(CN3CCOCC3)cc2)n1)Nc1ccc(Br)cc1` [CBK127364]: the “% of control remaining” value came to 95.6888.
The result for `O=C1CCc2cccc(OCCO)c21` [CBK001442] reads 82.7884.
Under `CC(C)NC(=O)[C@H]1O[C@H](CCN2CCN(c3ccccn3)CC2)CC[C@@H]1O` [CBK288722] stands 105.007; under `O=C(O)c1ccc(NS(=O)(=O)c2ccc(Br)c3ccccc23)cc1O` [CBK299772], 95.653; under `CC(C)CNC(=O)C(=O)NCCc1ccc(F)cc1` [CBK264903], 108.131.
Under `O=C(Cc1ccsc1)NCCn1nc(-c2cccs2)ccc1=O` [CBK283842] stands 83.3883; under `Cc1nc2ccc(C(=O)NCCn3ccnc3C)cc2s1` [CBK282477], 116.038; under `Cn1nccc1C(=O)NC(Cc1ccsc1)c1cccnc1` (stereo not shown) [CBK285394], 87.9044.
On to `Cc1nc(C)c(C(=O)N2CCC(c3cc4ncccc4[nH]3)CC2)s1` [CBK283396], for which the “% of control remaining” value is on record as 117.68.
With `COc1ccc(-c2nc3ccccc3s2)cc1NC(=O)c1ccc(OCC(C)C)cc1` [CBK268878], the “% of control remaining” value was 107.037.
Under `CCCS(=O)(=O)N1CCN(S(=O)(=O)c2ccc(NC(C)=O)cc2)CC1` [CBK264288] stands 106.714; under `CCC1C(=O)NCCN1C(=O)c1cc2cc(C)ccc2n1C` (stereo not shown) [CBK281729], 99.6273.
Under `Nc1ncc(-c2ccc(C(=O)N3CCOCC3)cc2)cc1C(=O)NCc1ccc(Cl)c(Cl)c1` [CBK158570] stands 49.6169.
The result for `Cc1n[nH]c2c1CN(Cc1nc(C)c(C)n1C)CC2` [CBK307456] reads 40.9735.
In the case of `CC(C)c1nc(CN2CCN(c3ccc4nncn4n3)CC2)cs1` [CBK306219], the “% of control remaining” value was 98.4576.
The result for `CCN(CC)C(=O)c1sc(NC(=O)c2cc(-c3ccncc3)nc3c(C)cccc23)c(C#N)c1C` [CBK267771] reads 107.691; that for `O=C(Nc1ccc2cc(Br)cnc2n1)c1ccccc1[N+](=O)[O-]` [CBK063253], 82.7891.
The result for `O=c1ccc2ccc(-c3cccc(C(F)(F)F)c3)nc2[nH]1` [CBK073717] reads 98.6433; that for `FC(F)(F)Oc1ccc(-c2cc(Nc3ccc(N4CCOCC4)cc3)ncn2)cc1` [CBK090934], 146.811; that for `CCCn1c(SCC(=O)Nc2scc(CC(C)C)c2C(=O)OCC)n[nH]c1=O` [CBK295615], 95.8262.
Under `O=C(CSC1c2ccccc2Oc2ccccc21)Nc1ccccc1C(=O)O` [CBK266499] stands 135.589; under `CCCN1CC2(CCN(Cc3nccn3C)CC2)CC1C(=O)O` (stereo not shown) [CBK307658], 95.2454.
As to `COC(=O)c1cc(C)sc1NC(=S)Nc1ccn(Cc2ccc(Br)cc2)n1` [CBK266934], the “% of control remaining” value worked out at 101.734.
`COc1ccc(C2C(C(=O)c3ccco3)=C(O)C(=O)N2CCN2CCOCC2)cc1OC` (stereo not shown) [CBK264544]: the “% of control remaining” value stood at 112.44.
Under `CC(Cn1cccn1)NC(=O)N1CCN(Cc2ccc(F)cc2)CC1` (stereo not shown) [CBK306948] stands 80.3437; under `CCNC(=O)[C@H]1CC[C@]2(CC1)CNC(=O)c1cc(Cl)ccc1O2` [CBK284890], 103.772; under `CC(C)(C)c1csc(NC(=O)C2CC(=O)N(Cc3cccs3)C2)n1` (stereo not shown) [CBK175547], 84.743.
Under `CN1CCN(CCCNC(=O)N(CCC#N)C2CCCCC2)CC1` [CBK156346] stands 111.707.
For `COc1ccc([C@H]2CN(Cc3ccccc3)[C@@H]3CCN(C(=O)Cc4ccsc4)C[C@H]23)cc1` [CBK285551], the “% of control remaining” value was determined as 49.2157.
Under `O=C(O)CCCCc1nn(-c2ccc(Cl)c(Cl)c2)c2c1CCC2` [CBK012529] stands 69.2004.
Under `COCCCOc1nc2ccccc2nc1NC(C)C` [CBK115737] stands 86.7384; under `CC(Oc1ccc(Cl)cc1Cl)C(=O)Nc1ccc(N2CCN(C)CC2)cc1` (stereo not shown) [CBK266780], 121.263; under `COc1cccc(NC(=O)CSCc2n[nH]c(=O)[nH]2)c1` [CBK266058], 103.16.
Under `CC(C)C(=O)N1C[C@@H](N(C)C)[C@H](c2cn(C)c3ccccc23)C1` [CBK282717] stands 100.037.
`Cc1cc(NC(=O)CN2CCN(c3ccccc3)CC2)c2ccccc2n1` [CBK278322G]: the “% of control remaining” value stood at 82.6381.
Under `Cc1nc(-c2ccsc2)sc1C(=O)NC1CCCN(c2ncccn2)C1` (stereo not shown) [CBK305632] stands 48.0168; under `Cc1cccc(Cc2cccc(C3CCCN(C(=O)c4ccc(=O)[nH]c4)C3)n2)c1` (stereo not shown) [CBK286243], 130.417.
Turning to `Cc1csc2ncc(C(=O)NCc3ccc4c(c3)OCO4)c(=O)n12` [CBK287292], the “% of control remaining” value is reported as 87.7428.
`COc1ccc(OC)c(NC(=O)CN2CCN(c3ccccn3)CC2)c1` [CBK262978]: the “% of control remaining” value stood at 80.9498.
On to `C[C@@H]1[C@H]2C[C@@H](C[C@H]1NC1=NC(=O)C(CC(=O)O)S1)C2(C)C` (stereo partly shown) [CBK059514], for which the “% of control remaining” value was 131.135.
Under `O=C(c1ccco1)N1CCc2c([nH]c3ccccc23)C12CCN(Cc1ccccc1)CC2` [CBK286313] stands 121.99; under `Cc1cc(C)c(C#N)c(N2CCOC3(CCN(C(=O)OCc4ccccc4)CC3)C2)n1` [CBK161114T], 99.6024; under `COc1ccc(C)cc1S(=O)(=O)n1cc2c3c(cccc31)CN(C(=O)CN(C)C)C2` [CBK155549T], 78.3103.
The result for `CSc1ccc(-c2cn3ccnc3c(N3CCN(CCO)CC3)n2)cc1` [CBK066596] reads 112.417.
The result for `Nc1ncc(-c2cccc(Br)c2)nc1NC1CCOCC1` [CBK063854] reads 121.5.
`COc1cccc(Nc2cc(-c3cccc(N)c3)ncn2)c1OC` [CBK090726]: the “% of control remaining” value is recorded as 114.626.
With `Cc1ccc(-c2oncc2C(=O)NCc2ccc(S(N)(=O)=O)cc2)cc1` [CBK154912], the “% of control remaining” value is recorded as 103.464.
Turning to `Cc1cc(-c2cn3cc(C(=O)NCCO)nc3c(=O)n2C)c(C)o1` [CBK307288], the “% of control remaining” value came to 75.4217.
The result for `Cc1ccc(S(=O)(=O)NCCSc2ccccn2)cc1[N+](=O)[O-]` [CBK263566] reads 65.8309.
The result for `Cc1cc(C2CCCCCN2C(=O)c2ccccc2F)on1` (stereo not shown) [CBK284842] reads 96.9859.
Under `CCOC(=O)c1ccc(-c2[nH]cnc2-c2c(C)cc(OC)cc2O)o1` [CBK026647] stands 83.5499; under `CC(NC(=O)Cc1c[nH]c(=O)[nH]c1=O)c1cc2cc(Cl)ccc2o1` (stereo not shown) [CBK285673], 94.0864.
With `CC(C)(C)c1ccc(Oc2c(C(F)(F)F)oc3cc(OCC(=O)O)ccc3c2=O)cc1` [CBK217882], the “% of control remaining” value worked out at 113.645.
Under `COc1ncccc1-c1csc(N2CCOC(C)C2)n1` (stereo not shown) [CBK304118] stands 35.554; under `Cc1cc(Br)cc(C)c1OCC(=O)NNC(=O)Cc1cccc2ccccc12` [CBK267151], 108.542.
Under `c1ccc2c(c1)CCC(CNCCN1CCOCC1)O2` (stereo not shown) [CBK023956G] stands 96.7686; under `O=C(N[C@H]1CCN2C(=O)[C@H]3CCCN3C(=O)[C@@H]2C1)c1cccs1` [CBK289538], 117.631; under `O=C(Nc1ccc2[nH]ccc2c1)N1CCCC(CO)C1` (stereo not shown) [CBK156044], 105.451.
The result for `N#Cc1ccc(C(=O)Nc2ccc3n(c2=O)C[C@H]2C[C@@H]3CN(C(=O)c3ccccc3)C2)cc1` [CBK289073] reads 94.5261; that for `O=C(COC(=O)c1ccccc1NC(=O)c1ccccc1)c1ccc2ccccc2c1` [CBK265491], 90.3786; that for `CC1CCCN(CC(C)(C)NC(=O)c2ccnn2C(F)F)C1` (stereo not shown) [CBK282099], 101.814.
With `O=S(=O)(NCc1cccnc1)N1CCOCC1` [CBK269945], the “% of control remaining” value is 103.92.

Source of the values: paper PMC12040169 (PLOS Biology, 2025).
